The source of these data is the antibiotic and cytotoxicity screens of Wong et al. (2023).

One assay has as its system HSkMC. The assay is described as follows: cytotoxicity call (relative viability < 0.9). Conditions: 10 µM.
A further assay concerns S. aureus RN4220. The assay can be described thus: growth inhibition call (relative growth <= 0.2). Conditions: 50 µM.

Some of the results follow.

With `C[C@@H]1CCCCO[C@H](CN(C)S(=O)(=O)c2cccs2)[C@@H](C)CN([C@H](C)CO)C(=O)c2cc(NC(=O)Nc3ccccc3)ccc2O1`, the cytotoxicity call with HSkMC was “inactive”. The growth inhibition call in the assay with S. aureus RN4220 was “inactive”.

On to `Cc1ccc(S(=O)(=O)N(C)C[C@H]2OCCCC[C@@H](C)Oc3ccc(NC(=O)NC4CCCCC4)cc3C(=O)N([C@@H](C)CO)C[C@H]2C)cc1`, for which, in the assay on HSkMC, the cytotoxicity call was “inactive”. In addition, the growth inhibition call with S. aureus RN4220 is “inactive”.

Take `COc1ccc(CN(C)C[C@@H]2OCCCC[C@@H](C)Oc3ccc(NC(=O)Nc4ccc5c(c4)OCO5)cc3C(=O)N([C@H](C)CO)C[C@H]2C)cc1`: the cytotoxicity call in the assay on HSkMC is “inactive”. In the assay with S. aureus RN4220, the growth inhibition call was “inactive”.

Turning to `CNC(=O)C[C@H]1CC[C@H]2[C@@H](COC[C@@H](O)CN2C(=O)Nc2ccc3c(c2)OCO3)O1`, the cytotoxicity call in the assay on HSkMC was “inactive”. Also, the growth inhibition call in the assay on S. aureus RN4220 is “inactive”.

Take `Cc1noc(C)c1NC(=O)Nc1ccc2c(c1)C(=O)N([C@@H](C)CO)C[C@@H](C)[C@H](CN(C)CC1CC1)OCCCC[C@H](C)O2`: the cytotoxicity call in the assay with HSkMC was “inactive”. Besides, in the assay with S. aureus RN4220, the growth inhibition call was “inactive”.

As for `Cc1noc(C)c1NC(=O)Nc1ccc2c(c1)C(=O)N([C@H](C)CO)C[C@@H](C)[C@H](CN(C)C(=O)C1CCCCC1)OCCCC[C@@H](C)O2`, the cytotoxicity call in the assay on HSkMC is “inactive”. Further, the growth inhibition call in the assay with S. aureus RN4220 is “inactive”.

`COCC(=O)Nc1ccc2c(c1)OC[C@@H](C)N(Cc1ccccc1F)C[C@H](C)[C@H](OC)CN(C)C2=O`: the cytotoxicity call with HSkMC is “inactive”. In addition, the growth inhibition call with S. aureus RN4220 is “inactive”.

`CC(C)NC(=O)Nc1cccc2c1O[C@H](CN(C)S(=O)(=O)c1ccc(Cl)cc1)[C@@H](C)CN([C@@H](C)CO)C2=O`: the cytotoxicity call in the assay with HSkMC was “inactive”. In addition, the growth inhibition call in the assay on S. aureus RN4220 is “inactive”.

Turning to `C[C@@H]1CN([C@H](C)CO)C(=O)c2cc(NC(=O)Nc3ccc(C(F)(F)F)cc3)ccc2O[C@H]1CN(C)Cc1ccc(Oc2ccccc2)cc1`, the cytotoxicity call in the assay on HSkMC was “inactive”. Further, in the assay with S. aureus RN4220, the growth inhibition call is “inactive”.

On to `CNS(=O)(=O)c1ccc(C)cc1`, for which the cytotoxicity call in the assay on HSkMC is “inactive”. Moreover, the growth inhibition call in the assay with S. aureus RN4220 was “inactive”.

For the molecule `C[C@@H]1CN([C@H](C)CO)C(=O)c2c(c3ccccc3n2C)-c2ccccc2CO[C@H]1CN(C)C(=O)Nc1cccc(Cl)c1Cl`, the cytotoxicity call in the assay with HSkMC was “inactive”. Further, in the assay with S. aureus RN4220, the growth inhibition call was “inactive”.

Take `C[C@@H]1CN([C@H](C)CO)C(=O)c2cccc(NS(=O)(=O)c3ccc(F)cc3)c2O[C@H]1CN(C)S(=O)(=O)c1ccc(F)cc1`: in the assay with HSkMC, the cytotoxicity call was “inactive”. The growth inhibition call in the assay on S. aureus RN4220 is “inactive”.

Take `O=C(C[C@@H]1CC[C@H]2[C@@H](COC[C@@H](O)CN2S(=O)(=O)c2cccc(F)c2)O1)NCc1ccncn1`: in the assay on HSkMC, the cytotoxicity call was “inactive”. For the same molecule, the growth inhibition call in the assay on S. aureus RN4220 is “inactive”.

`C[C@@H]1CCCCO[C@H](CN(C)C(=O)Nc2ccc(F)cc2)[C@H](C)CN([C@H](C)CO)C(=O)c2cc(NS(=O)(=O)c3cccs3)ccc2O1`: the cytotoxicity call in the assay on HSkMC is “inactive”. Also, the growth inhibition call in the assay with S. aureus RN4220 is “inactive”.

As to `CC(C)(C)c1c(C(C)(C)C)c1=O`, the cytotoxicity call with HSkMC is “inactive”. In addition, the growth inhibition call with S. aureus RN4220 is “inactive”.

On to `C[C@@H]1CN([C@@H](C)CO)S(=O)(=O)c2ccc(C#CCN(C)C)cc2O[C@@H]1CN(C)Cc1ccc(F)cc1`, for which the cytotoxicity call with HSkMC is “inactive”. Also, the growth inhibition call with S. aureus RN4220 was “inactive”.

Regarding `CC(C)CC#Cc1ccc2c(c1)O[C@@H](CN(C)C(=O)c1cccnc1)[C@@H](C)CN([C@H](C)CO)S2(=O)=O`, in the assay on HSkMC, the cytotoxicity call is “inactive”. Further, the growth inhibition call in the assay on S. aureus RN4220 is “inactive”.

On to `Cc1noc(C)c1S(=O)(=O)N(C)C[C@@H]1Oc2ccc(NS(=O)(=O)c3ccccc3)cc2C(=O)N([C@@H](C)CO)C[C@@H]1C`, for which the cytotoxicity call in the assay with HSkMC is “inactive”. The growth inhibition call in the assay with S. aureus RN4220 is “inactive”.

On to `Cc1noc(C)c1S(=O)(=O)N(C)C[C@@H]1OCCCC[C@@H](C)Oc2ccc(NC(=O)Nc3ccc(C(F)(F)F)cc3)cc2C(=O)N([C@H](C)CO)C[C@H]1C`, for which the cytotoxicity call in the assay on HSkMC was “inactive”. The growth inhibition call in the assay on S. aureus RN4220 was “inactive”.

For `C[C@@H]1CN([C@@H](C)CO)C(=O)c2cccc(NC(=O)Nc3ccc(F)cc3)c2O[C@@H]1CN(C)Cc1ccc(Cl)c(Cl)c1`, in the assay with HSkMC, the cytotoxicity call is “active”. Further, the growth inhibition call with S. aureus RN4220 was “inactive”.

For `C[C@@H]1CCCCO[C@@H](CN(C)C(=O)Nc2ccc(F)cc2)[C@H](C)CN([C@H](C)CO)C(=O)c2cc(NC(=O)c3ccncc3)ccc2O1`, the cytotoxicity call in the assay on HSkMC was “inactive”. Also, the growth inhibition call in the assay with S. aureus RN4220 is “inactive”.

In the case of `CCCCCCc1ccc(O)cc1O`, the cytotoxicity call with HSkMC is “active”. In the assay with S. aureus RN4220, the growth inhibition call is “active”.

With `Cc1noc(C)c1NC(=O)Nc1ccc2c(c1)C(=O)N([C@H](C)CO)C[C@@H](C)[C@H](CN(C)C(=O)Nc1ccc(C(F)(F)F)cc1)OCCCC[C@@H](C)O2`, in the assay with HSkMC, the cytotoxicity call is “inactive”. Besides, the growth inhibition call with S. aureus RN4220 was “inactive”.

With `Nc1ncnc2c1CCC2`, the cytotoxicity call with HSkMC was “inactive”. In the assay with S. aureus RN4220, the growth inhibition call was “inactive”.

Take `C[C@@H]1CCCCO[C@@H](CN(C)Cc2ccc(C(F)(F)F)cc2)[C@H](C)CN([C@H](C)CO)C(=O)c2cc(NC(=O)Nc3ccc(C(F)(F)F)cc3)ccc2O1`: the cytotoxicity call in the assay with HSkMC was “inactive”. Also, the growth inhibition call in the assay with S. aureus RN4220 is “inactive”.

Turning to `C[C@H](CO)N1C[C@H](C)[C@@H](CN(C)CC2CCCCC2)Oc2ccc(NC(=O)Nc3ccc(F)cc3)cc2C1=O`, in the assay on HSkMC, the cytotoxicity call is “inactive”. Besides, the growth inhibition call in the assay on S. aureus RN4220 was “inactive”.

As to `C[C@@H]1CN([C@H](C)CO)C(=O)Cc2cc(NC(=O)CCC(F)(F)F)ccc2O[C@H]1CN(C)S(=O)(=O)c1cccs1`, in the assay on HSkMC, the cytotoxicity call is “inactive”. In addition, the growth inhibition call with S. aureus RN4220 is “inactive”.

Consider `C[C@@H]1CN([C@H](C)CO)C(=O)c2cc(NS(=O)(=O)c3ccc(F)cc3)ccc2O[C@@H]1CN(C)C(=O)Nc1ccc(C(F)(F)F)cc1`, for which, in the assay with HSkMC, the cytotoxicity call was “inactive”. For the same molecule, in the assay with S. aureus RN4220, the growth inhibition call is “inactive”.

As to `C[C@@H]1CCCCO[C@H](CN(C)C(=O)Nc2ccc(F)cc2)[C@@H](C)CN([C@H](C)CO)C(=O)c2cc(NC(=O)Nc3ccc(F)cc3)ccc2O1`, the cytotoxicity call in the assay on HSkMC is “inactive”. Also, in the assay on S. aureus RN4220, the growth inhibition call is “inactive”.

Consider `Cc1ccc(S(=O)(=O)N(C)C[C@H]2Oc3ccc(NC(=O)c4ccncc4)cc3C(=O)N([C@H](C)CO)C[C@@H]2C)cc1`, for which the cytotoxicity call in the assay on HSkMC (human skeletal muscle cells) is “inactive”. In the assay with S. aureus RN4220, the growth inhibition call is “inactive”.
